According to the supplement of paper PMC8728848:
The other results are listed elsewhere or left out.

Key:
Assay in all cases: glycan array binding signal (z-score within array); higher = stronger binding
Conditions in all cases: glycan notation: IUPAC condensed, linker removed
[1] = molecular target: Fuc(a1-2)Gal
Method in brief: (§1)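 Columns mapping to the same glycan were averaged after glycan names were converted to IUPAC-condensed notation. The data come from 3228 arrays in the Consortium for Functional Glycomics database, limited to those with an available protein sequence. Binding is reported as a within-array Z-score averaged across arrays of one protein sequence and across linkers.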

[2] = molecular target: Fuc(a1-2)Gal(b1-3)GalNAc
Method in brief: as §1

[3] = molecular target: Fuc(a1-2)Gal(b1-3)GalNAc(a1-3)[Fuc(a1-2)]Gal(b1-4)Glc
Method in brief: as §1

[4] = molecular target: Fuc(a1-2)Gal(b1-3)GalNAc(a1-3)[Fuc(a1-2)]Gal(b1-4)GlcNAc
Method in brief: as §1

[5] = molecular target: Fuc(a1-2)Gal(b1-3)GalNAc(b1-3)Gal
Method in brief: as §1

[6] = molecular target: Fuc(a1-2)Gal(b1-3)GalNAc(b1-3)Gal(a1-4)Gal(b1-4)Glc
Method in brief: as §1

[7] = molecular target: Fuc(a1-2)Gal(b1-3)GalNAc(b1-4)[Neu5Ac(a2-3)]Gal(b1-4)Glc
Method in brief: as §1

[8] = molecular target: Fuc(a1-2)Gal(b1-3)GlcNAc
Method in brief: as §1

[9] = molecular target: Fuc(a1-2)Gal(b1-3)GlcNAc(b1-2)Man(a1-3)[Fuc(a1-2)Gal(b1-3)GlcNAc(b1-2)Man(a1-6)]Man(b1-4)GlcNAc(b1-4)GlcNAc
Method in brief: as §1

[10] = molecular target: Fuc(a1-2)Gal(b1-3)GlcNAc(b1-2)Man(a1-3)[Fuc(a1-2)Gal(b1-3)GlcNAc(b1-2)Man(a1-6)]Man(b1-4)GlcNAc(b1-4)[Fuc(a1-6)]GlcNAc
Method in brief: as §1

[11] = molecular target: Fuc(a1-2)Gal(b1-3)GlcNAc(b1-3)Gal(b1-4)Glc
Method in brief: as §1

[12] = molecular target: Fuc(a1-2)Gal(b1-3)GlcNAc(b1-3)GalNAc
Method in brief: as §1

[13] = molecular target: Fuc(a1-2)Gal(b1-3)GlcNAc(b1-3)[Fuc(a1-2)Gal(b1-3)GlcNAc(b1-6)]GalNAc
Method in brief: as §1

[14] = molecular target: Fuc(a1-2)Gal(b1-3)GlcNAc(b1-3)[Fuc(a1-3)[Gal(b1-4)]GlcNAc(b1-6)]Gal(b1-4)Glc
Method in brief: as §1

[15] = molecular target: Fuc(a1-2)Gal(b1-3)GlcNAc(b1-3)[Gal(b1-4)GlcNAc(b1-6)]Gal(b1-4)Glc
Method in brief: as §1

[16] = molecular target: Fuc(a1-2)Gal(b1-3)GlcNAc(b1-3)[Neu5Ac(a2-6)Gal(b1-4)GlcNAc(b1-6)]Gal(b1-4)Glc
Method in brief: as §1

[17] = molecular target: Fuc(a1-2)Gal(b1-3)GlcNAc6S
Method in brief: as §1

[18] = molecular target: Fuc(a1-2)Gal(b1-3)[Fuc(a1-4)]GlcNAc
Method in brief: as §1

[19] = molecular target: Fuc(a1-2)Gal(b1-3)[Fuc(a1-4)]GlcNAc(b1-2)Man(a1-3)[Fuc(a1-2)Gal(b1-3)[Fuc(a1-4)]GlcNAc(b1-2)Man(a1-6)]Man(b1-4)GlcNAc(b1-4)GlcNAc
Method in brief: as §1

[20] = molecular target: Fuc(a1-2)Gal(b1-3)[Fuc(a1-4)]GlcNAc(b1-2)Man(a1-6)[Fuc(a1-2)Gal(b1-3)[Fuc(a1-4)]GlcNAc(b1-2)Man(a1-3)]Man(b1-4)GlcNAc(b1-4)[Fuc(a1-6)]GlcNAc
Method in brief: as §1

[21] = molecular target: Fuc(a1-2)Gal(b1-3)[Fuc(a1-4)]GlcNAc(b1-3)[Fuc(a1-3)[Gal(b1-4)]GlcNAc(b1-6)]Gal(b1-4)Glc
Method in brief: as §1

[22] = molecular target: Fuc(a1-2)Gal(b1-3)[Fuc(a1-4)]GlcNAc(b1-3)[Gal(b1-4)GlcNAc(b1-6)]Gal(b1-4)Glc
Method in brief: as §1

[23] = molecular target: Fuc(a1-2)Gal(b1-4)Glc
Method in brief: as §1

[24] = molecular target: Fuc(a1-2)Gal(b1-4)Glc6S
Method in brief: as §1

[25] = molecular target: Fuc(a1-2)Gal(b1-4)GlcNAc
Method in brief: as §1

[26] = molecular target: Fuc(a1-2)Gal(b1-4)GlcNAc(b1-2)Man
Method in brief: as §1

[27] = molecular target: Fuc(a1-2)Gal(b1-4)GlcNAc(b1-2)Man(a1-3)[Fuc(a1-2)Gal(b1-4)GlcNAc(b1-2)Man(a1-6)]Man(b1-4)GlcNAc(b1-4)GlcNAc
Method in brief: as §1

[28] = molecular target: Fuc(a1-2)Gal(b1-4)GlcNAc(b1-2)Man(a1-3)[Fuc(a1-2)Gal(b1-4)GlcNAc(b1-2)Man(a1-6)]Man(b1-4)GlcNAc(b1-4)[Fuc(a1-6)]GlcNAc
Method in brief: as §1

[29] = molecular target: Fuc(a1-2)Gal(b1-4)GlcNAc(b1-2)[Fuc(a1-2)Gal(b1-4)GlcNAc(b1-4)]Man(a1-3)[Fuc(a1-2)Gal(b1-4)GlcNAc(b1-2)Man(a1-6)]Man(b1-4)GlcNAc(b1-4)GlcNAc
Method in brief: as §1

[30] = molecular target: Fuc(a1-2)Gal(b1-4)GlcNAc(b1-3)Gal(b1-4)GlcNAc
Method in brief: as §1

B1: PRKCE (Homo sapiens), Q02156 (protein)
chain: MVVFNGLLKIKICEAVSLKPTAWSLRHAVGPRPQTFLLDPYIALNVDDSRIGQTATKQKTNSPAWHDEFVTDVCNGRKIELAVFHDAPIGYDDFVANCTIQFEELLQNGSRHFEDWIDLEPEGRVYVIIDLSGSSGEAPKDNEERVFRERMRPRKRQGAVRRRVHQVNGHKFMATYLRQPTYCSHCRDFIWGVIGKQGYQCQVCTCVVHKRCHELIITKCAGLKKQETPDQVGSQRFSVNMPHKFGIHNYKVPTFCDHCGSLLWGLLRQGLQCKVCKMNVHRRCETNVAPNCGVDARGIAKVLADLGVTPDKITNSGQRRKKLIAGAESPQPASGSSPSEEDRSKSAPTSPCDQEIKELENNIRKALSFDNRGEEHRAASSPDGQLMSPGENGEVRQGQAKRLGLDEFNFIKVLGKGSFGKVMLAELKGKDEVYAVKVLKKDVILQDDDVDCTMTEKRILALARKHPYLTQLYCCFQTKDRLFFVMEYVNGGDLMFQIQRSRKFDEPRSRFYAAEVTSALMFLHQHGVIYRDLKLDNILLDAEGHCKLADFGMCKEGILNGVTTTTFCGTPDYIAPEILQELEYGPSVDWWALGVLMYEMMAGQPPFEADNEDDLFESILHDDVLYPVWLSKEAVSILKAFMTKNPHKRLGCVASQNGEDAIKQHPFFKEIDWVLLEQKKIKPPFKPRIKTKRDVNNFDQDFTREEPVLTLVDEAIVKQINQEEFKGFSYFGEDLMP
[1]
  glycan array binding signal (z-score): -0.205
[2]
  glycan array binding signal (z-score): -0.353
[3]
  glycan array binding signal (z-score): -0.374
[4]
  glycan array binding signal (z-score): -0.34
[5]
  glycan array binding signal (z-score): -0.099
[6]
  glycan array binding signal (z-score): 0.222
[7]
  glycan array binding signal (z-score): -0.414
[8]
  glycan array binding signal (z-score): -0.414
[9]
  glycan array binding signal (z-score): -0.28
[10]
  glycan array binding signal (z-score): -0.306
[11]
  glycan array binding signal (z-score): -0.391
[12]
  glycan array binding signal (z-score): 0.453
[13]
  glycan array binding signal (z-score): -0.128
[14]
  glycan array binding signal (z-score): 0.285
[15]
  glycan array binding signal (z-score): -0.354
[16]
  glycan array binding signal (z-score): -0.252
[17]
  glycan array binding signal (z-score): -0.014
[18]
  glycan array binding signal (z-score): -0.08
[19]
  glycan array binding signal (z-score): 3.82
[20]
  glycan array binding signal (z-score): -0.004
[21]
  glycan array binding signal (z-score): -0.205
[22]
  glycan array binding signal (z-score): -0.388
[23]
  glycan array binding signal (z-score): -0.235
[24]
  glycan array binding signal (z-score): 0.01
[25]
  glycan array binding signal (z-score): -0.402
[26]
  glycan array binding signal (z-score): 1.36
[27]
  glycan array binding signal (z-score): -0.127
[28]
  glycan array binding signal (z-score): 2.04
[29]
  glycan array binding signal (z-score): 0.577
[30]
  glycan array binding signal (z-score): -0.317
